Screen size: about 410,000 compounds; about 7,200 (1.8%) were called active. The shares of active, inactive and inconclusive entries below differ from those in the screen. Calls come from the whole dose curve; as a rule, active = well fitted activation curve with a large enough effect; inconclusive = small, poorly fitted or top-dose-only effect, or another doubt; inactive = no such curve, though single readings can be large or run the other way. Potencies of inconclusive entries are left out as doubtful fits.
assay: qHTS of TDP-43 Inhibitors; conditions: TDP-43 expressing yeast growth rescue, BacTiter-Glo, 24 h; growth rescue (activation): at 46.1 µM (top of the series) unless noted; note: nearly all actives have a fitted effect of over 50% in size; for growth rescue (activation): % of control where 0% means no effect
Summary of the method: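 Yeast cells expressing TDP-43 under galactose induction are exposed to compounds for 24 hr at 30 deg C. BacTiter-Glo luminescence measures growth, so protective compounds score as activators.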
Potency is the fitted concentration of half-maximal effect; tags give direction and shape of the fitted curve.

| SMILES | Potency | growth rescue (activation) |
| --- | --- | --- |
| COc1ccc(N2C(=O)C(C)(C)C2c2c(O)ccc3ccccc23)cc1 (configuration not stated) | inconclusive [activator, single point] |  |
| O=C(O)CCN1C(=O)c2ccc(NC(=O)COc3ccccc3)cc2C1=O | inconclusive [activator, partial curve, poor fit] |  |
| COc1cccc(-c2cc(-c3cccnc3)nc(N)c2C#N)c1 | inconclusive [activator, full curve, poor fit] |  |
| O=C(C1CC1)N(Cc1nc2ccccc2c(=O)[nH]1)Cc1cccs1 | inconclusive [activator, single point] |  |
| O=C(Nc1ccccc1)c1ccc2c(O)c(S(=O)(=O)c3ccc(Cl)cc3)c(=O)[nH]c2c1 |  | inactive: 12.9% |
| Cc1cc(Nc2cccc(Cl)c2)nc2ccc(NC(=O)c3cccc(N(C)C)c3)cc12 | active: 15.8 µM |  |
| COc1ccccc1C(=O)Nc1onc2c1CCCC2 | inconclusive [activator, partial curve] |  |
| COc1ccccc1NC(=S)N(Cc1ccccc1)Cc1ccccn1 | active: 22.4 µM |  |
| COc1ccc(-c2noc(CSc3nc(N)cc(=O)[nH]3)n2)cc1 | inactive |  |
| C=CCN1C(=O)c2ccc(C(=O)N(C)CC(=O)Nc3c(C)cccc3C)cc2C1=O | inconclusive [activator, single point] |  |
| CC(C)n1nccc1N(Cc1ccc(Br)cc1)S(=O)(=O)c1ccccc1 | inconclusive [activator, partial curve] |  |
| NC(=S)N/N=C/c1coc2ccc(Cl)cc2c1=O |  | inconclusive: -89.5% [activator] |
| Cc1cccc(OC(=O)c2cc(-c3ccc4c(c3)OCCO4)on2)c1C |  | inactive: -2.56% |
| O=C(CCc1nnc(-c2ccsc2)o1)N1CCc2c(Cl)cccc2C1 | inconclusive [activator, partial curve] |  |
| Cc1ccc(S(=O)(=O)Nc2cccc3cccnc23)c([N+](=O)[O-])c1 | active: 7.94 µM |  |
| CC1(C(=O)NS(=O)(=O)c2cccc(Cl)c2)CCN1C(=O)C1(c2ccc(Cl)cc2)CCC1 (configuration not stated) | inconclusive [activator, single point] |  |
| O=C(C1=C[C@H](c2csc3ccccc23)C[C@H](OCc2ccc(CO)cc2)O1)N1CCCCCCC1 | inconclusive [activator, partial curve, poor fit] |  |
| O=C(O)C1=C[C@@H](C2CC2)C[C@@H](OCCCCO)O1 | inconclusive [activator, partial curve] |  |
| CCn1c(C(=O)N2CCCC(C(=O)N3CCN(c4ccccc4)CC3)C2)cc2sccc21 (configuration not stated) | inconclusive [activator, single point] |  |
| CCOc1ccc(-c2cccc(NS(=O)(=O)c3ccccc3C(F)(F)F)c2)nn1 | inconclusive [activator, single point] |  |
| Cc1ccc(S(=O)(=O)NCC(Nc2cccc(Cl)c2)c2ccccc2)cc1 (configuration not stated) |  | inactive: 7.16% |

| SMILES | Potency | growth rescue (activation) |
| --- | --- | --- |
| CC(C)c1ccc(Nc2ccc(C(=O)O)cc2[N+](=O)[O-])cc1 |  | inactive: 11.3% |
| C/C(=N\Nc1cccc([N+](=O)[O-])c1)c1cc(F)ccc1O | inconclusive [activator, full curve, poor fit] |  |
| CCc1cc(=O)oc2c3c(cc(OCC(=O)Nc4cccnc4)c12)OC(C)(C)CC3 | inconclusive [activator, full curve] |  |
| CCn1cc(C(=O)N2CCN(c3ccc(OC)cc3)CC2)c2cc(OC)c(OC)cc2c1=O | inactive |  |
| O=C(Nc1ccc(F)cc1)c1cccnc1Oc1ccccc1 | inconclusive [activator, partial curve] |  |
| Cn1c2ccc(F)cc2c2ncn(Cc3ccccn3)c(=O)c21 | inconclusive [activator, partial curve] |  |
| Cc1ccc(N2C(=O)CC(N(O)C3CC(=O)N(c4ccc(C)cc4)C3=O)C2=O)cc1 (configuration not stated) | inconclusive [activator, single point] |  |
| CC(=O)N1c2ccc(S(=O)(=O)N(C)CC(=O)N(Cc3ccccc3)C(C)C)cc2CC1C (configuration not stated) |  | inactive: 9.43% |
| c1ccc(-c2onc3cc4c(cc23)OCCO4)cc1 | active: 35.5 µM |  |
| COc1ccc(NC(=O)C2(C)CCN2C(=O)c2ccc(C(C)(C)C)cc2)cc1OC (configuration not stated) | inconclusive [activator, full curve, poor fit] |  |
| O=C(Nc1cccc(Cl)c1)Nc1nccs1 | inconclusive [activator, partial curve] |  |
| COc1ccc(N(CC(=O)Nc2cc(OC)ccc2OC)S(=O)(=O)c2c(C)nn(C)c2C)cc1 | inconclusive [activator, partial curve] |  |
| Cc1cccc(NC(=O)CSCC(=O)N(C)Cc2ccc(Cl)c(Cl)c2)c1 | active: 25.1 µM |  |
| CC(C)C[C@H]1CNC(=S)N1C[C@H]1CCCN1C[C@H](Cc1ccc(O)cc1)N1C[C@H](CC(C)C)N(CC2CCCCCC2)C1=S | inconclusive [activator, partial curve] |  |
| Oc1cccc(/C=C/c2ccc3cccc(O)c3n2)c1 | active: 12.6 µM |  |
| CCN(C[C@H]1N[C@@](C)(C(=O)OC)[C@H]2C(=O)N(Cc3ccccc3)C(=O)[C@@H]12)C(=O)c1ccc(C(C)(C)C)cc1 | inconclusive [activator, partial curve] |  |
| CCn1cc(C(=O)OCC(=O)Nc2c(C)cccc2C)c(=O)c2ccc(C)nc21 | inconclusive [activator, single point] |  |
| COc1ccc(Cl)cc1C(=O)NNC(=S)NC(=O)/C=C/c1ccco1 | inconclusive [activator, partial curve] |  |
| CCCCCOC(=O)C(C)Sc1n[nH]c(=O)[nH]c1=O (configuration not stated) |  | inactive: 0% |
| CC(=O)NS(=O)(=O)c1ccc(N)cc1 | inconclusive [activator, full curve, poor fit] |  |
| COC(=O)c1ccsc1NC(=O)c1cccc(OC)c1 | inconclusive [activator, single point] |  |

Source: PubChem BioAssay AID652104 (National Center for Advancing Translational Sciences (NCATS), 2013)
